# Substitutions are numbered along the chain they refer to.
# B1: VHH-1-Fc: VHH-1 fused to short hinge of human IgG1 Fc, SEQ ID NO: 31 (protein)
# chain: QVQLQESGGGLVQAGGSLRLSCVASGSTSSIRRIGWYRQAPGKQRELVARFSSGGGTNYADFVKGRFTISGDNAKNTMYLQMNSLKPEDTAVYYCSARRLLGTSRVDYWGQGTQVTVSS[human IgG1 Fc not given here]
# B2: VHH-2-Fc: VHH-2 fused to short hinge of human IgG1 Fc, SEQ ID NO: 33 (protein)
# chain: QVQLQESGGGLVQAGGSLRLTCAVSGSTSTINRFAWYRQAPGKQRELVAATSSRTSPNYADSVKGRFRFSRDNARSAVYLQMDNLRPEDTAVYFCQARMAMGSSQVVYWGLGTQVTVSS[human IgG1 Fc not given here]
# B3: VHH-9-Fc: VHH-Fc fusion antibody, SEQ ID NO: 91 (protein)
# chain: B1 chain with G56S, V106Y
# B4: VHH-10-Fc: VHH-Fc fusion antibody, SEQ ID NO: 92 (protein)
# chain: B1 chain with G56S, D107N
# B5: VHH-12-Fc: VHH-Fc fusion antibody, SEQ ID NO: 94 (protein)
# chain: B1 chain with S52T, Y108S
# B6: VHH-2.2-Fc: VHH-2.2 (SEQ ID NO: 110) fused to human IgG1 Fc (protein)
# chain: EVQLVESGGGLVQPGGSLRLSCAVSGSTSTINRFAWYRQAPGKGLEWVAATSSRTSPNYADSVKGRFTFSRDNSKNTVYLQMNSLRAEDTAVYYCQARMAMGSSQVVYWGQGTTVTVSS[human IgG1 Fc not given here]
# B7: VHH-2.3-Fc: VHH-2.3 (SEQ ID NO: 111) fused to human IgG1 Fc (protein)
# chain: B6 chain with L45R, W47L
# B8: VHH-1.2-Fc: VHH-1.2 (SEQ ID NO: 107) fused to human IgG1 Fc (protein)
# chain: B1 chain with S52T, Y108S
# B9: VHH-1.3-Fc: VHH-1.3 (SEQ ID NO: 108) fused to human IgG1 Fc (protein)
# chain: B2 chain with Q96N
# Columns and labels:
# [1] = biological target: T1, hCCR8 (Homo sapiens, UniProt P51685); test: Inhibition of CCL1-induced β-arrestin recruitment (DiscoverX PathHunter eXpress); type: cell-based; conditions: CCL1 at EC80; for IC50 values (in words): FIG. 5
# T1 construct: expressed in transfected cells
# From the text: Agonist-induced internalization of hCCR8 and other GPCRs is a regulatory mechanism often driven by engagement of the activated receptor by β-arrestin. Antagonism of this pathway is desirable to prevent the loss of bound anti-CCR8 antibodies from the cell surface with a concomitant loss efficacy. We characterized VHH-Fc molecules for the inhibition of CCL1-induced β-arrestin recruitment (DiscoverX PathHunter® eXpress, Eurofins) (FIG. 5). A fixed concentration (EC80) of the hCCR8 agonist CCL1 (R&D Systems, #272-I) was used to stimulate receptor β-arrestin recruitment. Multipoint dilution series of the VHH-Fc molecules were mixed with the assay components to inhibit CCL1 activation of CCR8.
# Selected optimized VHH-Fc molecules were evaluated for functional inhibition of CCL1-induced hCCR8 activation and recruitment of β-arrestin (DiscoverX PathHunter® eXpress, Eurofins) signaling (FIG. 12). In this assay, a fixed concentration (EC80) of the hCCR8 agonist CCL1 (R&D Systems, #272-I) was used to stimulate receptor b-arrestin signaling. Multipoint dilution series of individual VHH-Fc molecules were mixed with the assay components to generate inhibition curves, from which the concentration necessary to achieve 50% inhibition (IC50) could be determined. Data were plotted and fit using GraphPad Prism software and IC50 values individual antibodies were calculated from the resulting dose-response curves. Fc fusions of VHH-1 (SEQ ID NO: 27), VHH-1.3 (SEQ ID NO: 108), VHH-1.3-19 (SEQ ID NO: 204), and VHH-2.3-2 (SEQ ID NO: 208) were evaluated and found to be potent inhibitors as shown by the sub-nanomolar potency values listed in Table 17.
# [2] = biological target: T1, hCCR8; test: VHH-Fc binding to hCCR8-expressing HEK293 cells in presence or absence of ML604086 or CCL1; conditions: for cell binding in presence of 10 μM ML604086: HEK293 cells expressing hCCR8, 10 μM ML604086
# Procedure: VHH-Fc fusions were evaluated for their ability to bind to hCCR8 expressed on cells in the presence and absence of either the chemokine antagonist CCL1 or the potent small molecule antagonist ML604086. HEK293 cells expressing hCCR8 were incubated with a fixed concentration (10 nM) of VHH-1-Fc (SEQ ID NO: 31) in the presence of different concentrations ML604086 (FIG. 4A) or in a separate experiment, using fixed concentrations of either ML604086 or CCL1 (FIG. 4B). Binding studies were conducted on hCCR8 expressing cells for 60 minutes at 4° C., followed by two washes and then 30 minutes incubation at 4° C. with the Zenon R-Phycoerythrin Anti-human IgG secondary antibody (ThermoFisher Scientific, #Z-25455). Binding to cells was assessed by flow cytometry. […] The VHH-Fc clones, VHH-1-Fc (SEQ ID NO: 31), VHH-9-Fc (SEQ ID NO: 91), VHH-10-Fc (SEQ ID NO: 92) and VHH-12-Fc (SEQ ID NO: 94) were also tested for binding to HEK293 cells expressing hCCR8 as described above, in the presence or absence of 10 μM added ML604086 (FIG. 4C).
# [3] = test system: hCCR8, Chimera A and Chimera B (hCCR8/hCCR1 chimeras); test: Epitope mapping by flow cytometry on HEK293T cells expressing hCCR8 or hCCR8/hCCR1 chimeras; type: binding, human; conditions: hCCR8 vs Chimera A vs Chimera B, MFI comparison
# From the text: Determination of binding epitope location on hCCR8 was done for representative VHH-Fc antibodies by flow cytometry analysis using HEK293T cells expressing hCCR8 or two receptor chimeras comprised of combined sequence elements taken from hCCR8 (SEQ ID NO: 37) and hCCR1 (SEQ ID NO: 39). In the first, Chimera A based on hCCR8, the N-terminal region of the receptor (SEQ ID NO: 38) was replaced with a sequence encoding the N-terminal region of hCCR1 (SEQ ID NO: 40). In Chimera B based on hCCR1, the N-terminal region of the receptor was replaced by the sequence encoding the hCCR8 N-terminus (SEQ ID NO: 38).
# [4] = biological target: T1, hCCR8; test: Flow cytometry binding of VHH-Fc fusion antibodies to hCCR8 on stably transfected HEK293 cells; conditions: Table 10; for EC50: parental and humanized VHH-Fc, HEK293 cells expressing human CCR8; for Bmax (%): normalized relative to respective parental clone
# Procedure: VHH-Fc fusion antibodies were evaluated for their ability to bind to hCCR8 on stably transfected HEK293 cells by means of flow cytometry. Cells were incubated with different concentrations of the bivalent VHH-Fc fusions for 60 minutes at 4° C., followed by two washes with FACS buffer, followed by 30 minutes incubation at 4° C. with the Zenon R-Phycoerythrin Anti-human IgG (ThermoFisher Scientific, #Z-25455), and two additional washing steps. Data were plotted and fit using GraphPad Prism software. EC50 and Bmax values individual antibodies were calculated from the resulting dose-response curves. Bivalent VHH-Fc fusions (Seq ID NOs: 31, 33, and 87-103) of 19 different VHH domains (SEQ ID NOs: 27, 28, and 70-86) were tested for cell binding and results are shown in Table 7. […]
# VHH-Fc fusion DNA constructs were then generated comprising encoding humanized VHH sequences (SEQ ID NOs: 106-111) fused in frame to the human IgG1 (SEQ ID NO: 34) directly to the short hinge sequence in the pFuse expression vector, and were expressed, purified and analyzed for binding to HEK293 cells expressing human CCR8 as in Example 5. Binding curves for VHH-Fc antibodies comprised of parental VHH-1 and the humanized VHH derivatives VHH-1.2-Fc and VHH-1.3-Fc are shown in FIG. 9A. Binding curves for VHH-Fc antibodies comprised of parental VHH-2 and the humanized VHH derivatives VHH-2-Fc, VHH-2.2-Fc and VHH-2.3-Fc, are shown in FIG. 9B. Cell binding EC50 values, normalized Bmax (relative to respective parental clone) data and humanizing mutations are shown in Table 10 below.
# Approaches such as in vitro affinity maturation and rational mutagenesis can be performed to regain binding affinity and/or stability lost through humanization. In vitro affinity maturation generally involves building and amino acid substitution library where amino acid positions are varied across the CDRs and/or framework at a defined set of positions using sets of amino acids chosen to introduce new chemical diversity. The paratope residues within the CDR regions are of course key to antigen binding and care must be taken not to disrupt important structures while attempting to evolve improve antibody behavior. One approach to identify positions that are important to the maintenance of binding properties is to perform paratope mapping using single scanning alanine substitutions across antibody CDR regions. In this approach, residues that are critical to the maintenance of antibody binding to the antigen can be identified and at the same time permissive sites can be identified where it may be possible to make substitutions of other amino acids desirable for subsequent affinity maturation library construction. Site directed mutagenesis was used to make single alanine substitutions at each residue in the CDRs of VHH-1 (SEQ ID NO: 27) and VHH-2 (SEQ ID NO: 28). Changes in VHH-1 CDR amino acids to alanine are indicated in Table 11 (SEQ ID NOs: 112-137) and for VHH-2 CDRs (SEQ ID NO: 138-162) in Table 12. Mutation positions and residue changes to alanine with respect to the in the parental VHH sequences are referenced by their IMGT position. VHH domains containing the indicated modified CDR-1, CDR-2 or CDR-3 domains were used to construct Fc fusions by direct grafting to the short hinge of the human Fc domain (SEQ ID NO: 34). VHH-Fc constructs were expressed, purified and analyzed for binding to HEK293 cells expressing hCCR8 and the results are reported in Table 11 and Table 12. EC50 values are reported for each Fc fusion antibody containing a modified CDR, along with its respective Bmax value normalized to the to the matched wild type VHH-1-Fc or VHH-2-Fc fusion antibody.
# T1 sequence (P51685 whole entry): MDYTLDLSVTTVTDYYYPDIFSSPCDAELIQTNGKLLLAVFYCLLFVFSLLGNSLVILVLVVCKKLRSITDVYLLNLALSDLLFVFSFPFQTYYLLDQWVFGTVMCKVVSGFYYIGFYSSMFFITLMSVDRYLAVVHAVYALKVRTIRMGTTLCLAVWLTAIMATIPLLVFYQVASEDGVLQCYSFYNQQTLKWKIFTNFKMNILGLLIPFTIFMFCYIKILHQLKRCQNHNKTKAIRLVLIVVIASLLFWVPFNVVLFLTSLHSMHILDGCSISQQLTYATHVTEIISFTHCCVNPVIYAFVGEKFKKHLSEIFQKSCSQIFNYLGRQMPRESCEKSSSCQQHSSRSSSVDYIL
Molecule,cell binding in presence of 10 μM ML604086 [2],EC50 [4] [nM],other results
B1,completely blocked,1.96,"IC50 values (in words) [1]: sub-nanomolar; effect of CCL1 on antibody binding to hCCR8 ([2]; 10 nM antibody, highest CCL1 concentration): completely prevent binding; effect of ML604086 on antibody binding to hCCR8 ([2]; 10 nM antibody, highest ML604086 concentration): completely prevent binding; binding epitope location on hCCR8 [3]: bound exclusively to the hCCR8 TMD"
B2,,0.78,IC50 values (in words) [1]: sub-nanomolar; binding epitope location on hCCR8 [3]: bound exclusively to the hCCR8 TMD
B3,completely blocked,,
B4,completely blocked,,
B5,completely blocked,,
B6,,2.12,
B7,,2.22,
B8,,2.66,Bmax (%) [4]: 119.3%
B9,,1.79,IC50 ([1]; Table 17): 0.26 nM; Bmax (%) [4]: 115.5%

# Source: US20250092146A1, “ANTI-CCR8 ANTIBODIES, CONJUGATES, AND USES THEREOF” (Abilita Bio, Inc., priority 2023, published 2025)
